Patent US20190233519A1 (NANJING LEGEND BIOTECH, published 2019)
Changes are numbered by the printed parent chain.

B1: A34311VH11 HCAb (Fc fusion)
heavy: EVQLVESGGGVVQPGRSLRLSCAASGRTITTITMGWFRQAPGKGREFVASHSWTDNNPYYADSVKGRFTISRDNAKNTLYLQMNSLRPEDTAVYYCAATARRSFVGRQWYTEARQYDYWGQGTLVTVSS[gap - human IgG1 Fc]
notes: Humanized VHH fused to human IgG1 Fc, dimeric form
B2: AS07014VH11G54 HCAb (Fc fusion)
heavy: EVQLVESGGGLVQPGGSLRLSCAASGYTYSRHCLGWFRQAPGKGREAVSTIDSGGSTSYADSVKGRFTISRDNAKNTLYLQMNSLRPEDTAVYYCAIGPNPRYCSGAPNTRGAEHYFGYWGQGTLVTVSS[gap - human IgG1 Fc]
notes: as for B1
B3: AS07014VH11 HCAb (Fc fusion)
heavy: B2 heavy with G54D
notes: as for B1
B4: AS07014VH11SGA HCAb (Fc fusion)
heavy: B2 heavy with D52S, N109A
notes: as for B1
B5: AS07014VH11SGQ HCAb (Fc fusion)
heavy: B2 heavy with D52S, N109Q
notes: as for B1
B6: AS07014VH11SGS HCAb (Fc fusion)
heavy: B2 heavy with D52S, N109S
notes: as for B1
B7: AS07189TKDVH11F27 HCAb (Fc fusion)
heavy: EVQLVESGGGLVQPGGSLRLSCAASGFSPSVNYMGWFRQAPGKGREEVSSIYPTGGTFYTDSVKGRFTISRDNAKNTLYLQMNSLRPEDTAVYYCAAGKWGTDYWGQGTLVTVSS[gap - human IgG1 Fc]
notes: as for B1
B8: AS07189TKDVH11 HCAb (Fc fusion)
heavy: B7 heavy with F27D
notes: as for B1
B9: BCP-34 (Keytruda-scFv-hIgG1 hinge-A34311-IgG1 Fc) (bispecific antibody)
chain: EIVLTQSPATLSLSPGERATLSCRASKGVSTSGYSYLHWYQQKPGQAPRLLIYLASYLESGVPARFSGSGSGTDFTLTISSLEPEDFAVYYCQHSRDLPLTFGGGTKVEIKGGGGSGGGGSGGGGSQVQLVQSGVEVKKPGASVKVSCKASGYTFTNYYMYWVRQAPGQGLEWMGGINPSNGGTNFNEKFKNRVTLTTDSSTTTAYMELKSLQFDDTAVYYCARRDYRFDMGFDYWGQGTTVTVSSEPKSCDKTHTCPPCPQVKLEESGGGLVLPGESLRLSCEASGRTITTITMGWFRQAPGKERQFVASHSWTDNNPYYADSVKGRFIISRDNAGNRVYLQMHSLEPEDTAVYYCAATARRSFVGRQWYTEARQYDYWGQGTQVTVSS[gap - human IgG1 Fc]
B10: A34311 HCAb (Fc fusion)
heavy: QVKLEESGGGLVLPGESLRLSCEASGRTITTITMGWFRQAPGKERQFVASHSWTDNNPYYADSVKGRFIISRDNAGNRVYLQMHSLEPEDTAVYYCAATARRSFVGRQWYTEARQYDYWGQGTQVTVSS[gap - human IgG1 Fc]
notes: Heavy chain-only antibody: A34311 VHH fused to human IgG1 Fc; also called HCAb A34311

What was measured:
CTLA-4-His protein [1] = biological target: T1, CTLA-4-His protein (Homo sapiens (Human), UniProt P16410 37-161); assay: SPR, CTLA-4-His immobilised, HCAb as analyte at 5-160 nM
T1 construct: also called CTLA-4-His fusion protein; not shown: His tag

CTLA-4-His protein [2] = biological target: T1, CTLA-4-His protein; assay: SPR, antibody captured by Fc, CTLA-4-His as analyte
T1 sequence (P16410 37-161 limits assumed): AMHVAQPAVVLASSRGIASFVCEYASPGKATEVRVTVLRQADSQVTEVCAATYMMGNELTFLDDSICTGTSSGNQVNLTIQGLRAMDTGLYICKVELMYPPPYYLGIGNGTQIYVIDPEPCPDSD

[3] = biological target: T2, human PD-1 expressed on CHO cells (human, UniProt Q15116 25-288); assay: FACS on CHO cells expressing human PD-1
T2 construct: whole, on cells; Also used here for PD-1 on primary T cells (MLR) and on reporter Jurkat cells in the functional rows; also called CHO cells expressing human PD-1

PD-1-His protein = biological target: T3, PD-1-His protein (UniProt Q15116 partial chain, limits assumed); assay: SPR, antibody captured by Fc, PD-1-His as analyte
PD-1-His protein, sequence (Q15116 25-167 limits assumed): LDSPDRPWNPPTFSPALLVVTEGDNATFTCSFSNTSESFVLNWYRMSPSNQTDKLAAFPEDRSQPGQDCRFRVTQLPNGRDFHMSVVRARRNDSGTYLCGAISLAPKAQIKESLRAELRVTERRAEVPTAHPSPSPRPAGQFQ
T3 construct: not shown: His tag

[4] = biological target: T2, human PD-1 expressed on CHO cells; assay: FACS competition, biotin hPD-L1-Fc on CHO cells expressing human PD-1
T2 sequence (Q15116 25-288): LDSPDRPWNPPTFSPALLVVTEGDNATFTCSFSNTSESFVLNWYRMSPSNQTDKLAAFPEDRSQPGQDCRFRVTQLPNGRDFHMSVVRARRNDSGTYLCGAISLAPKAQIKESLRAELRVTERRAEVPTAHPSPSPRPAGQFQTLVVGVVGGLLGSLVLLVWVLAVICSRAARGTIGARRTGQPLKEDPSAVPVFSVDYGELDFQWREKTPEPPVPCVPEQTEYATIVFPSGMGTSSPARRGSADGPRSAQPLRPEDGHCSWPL

[5] = biological target: T4, human CTLA-4 expressed on CHO cells (human, UniProt P16410 37-223); assay: FACS on CHO cells expressing human CTLA-4
T4 construct: also called CHO cells expressing human CTLA-4; CTLA-4 expressing CHO cells

[6] = biological target: T5, biotin-labeled hCTLA-4/Fc protein (human, UniProt P16410 37-161, biotin label in the FACS competition assays (sites not given)); assay: FACS competition, biotin hCTLA-4-Fc on CHO cells expressing human B7-1
T5 construct: also called CTLA-4 ECD (CTLA-4-Fc); CTLA-4-Fc (GenScript, Z03373-50)

| Binder | binding result (CTLA-4-His protein [1]) | also measured |
| --- | --- | --- |
| B1 | binds | – |
| B2 | binds | – |
| B3 | binds | – |
| B4 | binds | – |
| B5 | binds | – |
| B6 | binds | – |
| B7 | binds | – |
| B8 | binds | – |
| B9 | – | Kd (CTLA-4-His protein [2]): 6.3 nM; EC50 [3]: 5.4 nM; Kd (PD-1-His protein): 9.2 nM; IC50 [4]: 4.8 nM; EC50 [5]: 24.3 nM; IC50 [6]: 18.6 nM |
| B10 | – | IC50 [6]: 3.5 nM |
